First the molecules themselves.
T1: UNK ZnF1-3 (human, UniProt Q9C0B0 31-174)
T1 sequence: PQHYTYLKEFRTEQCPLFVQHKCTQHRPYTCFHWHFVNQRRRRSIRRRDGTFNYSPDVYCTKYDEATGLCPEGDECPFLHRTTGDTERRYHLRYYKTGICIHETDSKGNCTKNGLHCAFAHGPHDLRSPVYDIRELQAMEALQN

B1: chr5:74425352:74425353:-_ENSMUSG00000054814_ENSMUST00000068058|mus_mus|FALSE|FALSE (ssRNA)
RNA: GGGAGUUCUACAGUCCGACGAUCUUCCUGUUUCUUCUCUUCCUGCAGGAUGUCCGCAAUAGUGUUUAGCAAAUAAUUUAAGAACUCGUGAGCAUCCUGCUGCAUGUAGUUAUCAAAGAGAUCGUUCUCUUUCCUCAGCCUUGACAACAGAGGAUUGAGCAUCA
B2: chr1:113244022:113244023:-_ENSG00000155366_ENST00000369637|hu_hu|FALSE|FALSE (ssRNA)
RNA: GGGAGUUCUACAGUCCGACGAUCUAGGCGUGGCUCCCAGAGCGCUGGGAGGGAGGGCCCGUGCCACCACCUCGGGGCUAGAAAACAAUGCAGUCCUGGGCAGGAGGGAACUGAAAAUGGGAGCCUUCAGCAUGGAGCCCUCAGCAACAGAGGAUUGAGCAUCA
B3: chr7:102950833:102950834:+_ENSG00000105819_ENST00000453466|hu_hu|FALSE|FALSE (ssRNA)
RNA: GGGAGUUCUACAGUCCGACGAUCACCAUAUACAGUCCCCAUAAUCCUGUAUCUGUGUAGGAAGUGUUGAAAGACUGAAAGCUAUGGCAAAGAUUGCCAUGACAAGUGAGCUGGGCCAGCUUGCUAGAUAAAUUCAUUCCUCCCCAACAGAGGAUUGAGCAUCA
B4: chr8:103840089:103840090:-_ENSG00000155096_ENST00000347770|hu_mus|FALSE|FALSE (ssRNA)
RNA: GGGAGUUCUACAGUCCGACGAUCUCUCCAUAAUAAAUCUGAACUUCACAAUGAUUACCAAACACAUUUACUUAAAUUACUAAUUAAAUAACUAAAAAGUAUAUUGAGGCAAACCAAACUUAAACGGGUUAUAAAGAAACUAACCAACAGAGGAUUGAGCAUCA
B5: chr11:29607870:29607871:+_ENSMUSG00000020458_ENSMUST00000102843|mus_hu|FALSE|FALSE (ssRNA)
RNA: GGGAGUUCUACAGUCCGACGAUCGAAAUCCGGAGCUGGUUCAGCAGAAAGCUUUGUUUCUUUAAUUAAAUCACAUGCAAUAGAUAUAUAAGGAGCUUCUGUUUCUUGAAGAGCUGCAUUAAUAUUUUCAGGCUCUUUAAUUUCCAACAGAGGAUUGAGCAUCA
B6: chr1:28564431:28564432:+_ENSG00000130770_ENST00000335514|hu_hu|FALSE|FALSE (ssRNA)
RNA: GGGAGUUCUACAGUCCGACGAUCUUAAUCAUCAUGUUUUAGCAUUUUGAUCUUCUGCUUAUGGCGCUCAAUUUCUUUCUGCAGACGCUCAAUCUCCUUCUUAUGAUGAACGAUUUCUUCUUCAUGGUGUUUUUUCAAAGCUGCCAACAGAGGAUUGAGCAUCA
B7: chr1:33856384:33856385:-_ENSMUSG00000042197_ENSMUST00000044455|mus_mus|motif|central (ssRNA)
RNA: GGGAGUUCUACAGUCCGACGAUCUAGUGCUGUCUUGAAAAUACUUAAGAGCUGUACAAUAAUGUCAAAAUUAUUAAAGUGCGGAAUUUUCUGUGCUUUUUUGUUGCCGUUUAAUAUAAAGCGGGGAUUGAUACAAAUAAAUUACAACAGAGGAUUGAGCAUCA
B8: 46584523_46585552_994_CDS_ENSG00000123200_ENST00000242848|human|control|control (ssRNA)
RNA: GGGAGUUCUACAGUCCGACGAUCCCUAUCUUUCUUGCUAGCUGAAGACGACUUCGGGCUUGAUUUUCGCUUCGGAGAUUUGCUAGACUUUCUUAGAGAAGGUGACGGGGACAAUUUUGAUCUAACCACUUCUGGUGAAACCUCCAACAGAGGAUUGAGCAUCA
B9: chr5:146772872:146772873:-_ENSG00000113657_ENST00000343218|hu_hu|FALSE|FALSE (ssRNA)
RNA: GGGAGUUCUACAGUCCGACGAUCGCUCUGUCCCUGCCUGGCCUUCCCAACCCAGGAAAGAGAAGGAUUUGAAAGCAACACUAAGAAAGAGGCCUGAGCAAACACUGGCACAAUCAAGCAGGUGGAAGAAAUGGUUGGGUCUUGCAACAGAGGAUUGAGCAUCA
B10: chr12:56598494:56598495:-_ENSG00000181852_ENST00000345093|hu_hu|FALSE|FALSE (ssRNA)
RNA: GGGAGUUCUACAGUCCGACGAUCGUAUGAGCCUUGGUUAAGGCAGGUAGGGGAAAGGGGAGUGGAAGAAAUGUAGUAACCAGAGUAAGUAUAGCAGCGUUUUCAAAUUCCUGAGCACAAUGUCCCAGAGCUGGAACCCUACUCCAACAGAGGAUUGAGCAUCA
B11: chr5:150090687:150090688:-_ENSG00000132912_ENST00000447998|hu_mus|FALSE|FALSE (ssRNA)
RNA: GGGAGUUCUACAGUCCGACGAUCUUGUGUUGACACAGCUGUGGGUGGGGUCACUGUGUUUUAAGGAAGAAGAGGGCCAAAGCUCAGCUCCACGUGCUGCGUGAGCCAGAUGACCUCUGUGCCUUGGUCACCUUCUUCCACUGGCAACAGAGGAUUGAGCAUCA
B12: chr22:19452774:19452775:-_ENSG00000070010_ENST00000399523|hu_hu|hu_hu_hu_mus_False|58_108 (ssRNA)
RNA: GGGAGUUCUACAGUCCGACGAUCCUUUUCAUUAUAGUUGAUAGCAAUCACAUCUCCAGUCGUCAGACAGGCGAAGUUCCUAAGUGCAUUUUCUAAUACCGCUUUAGGGUUGGUAAUAUCCAGGAAGUCUGGGCUCUGAGGCUGCAACAGAGGAUUGAGCAUCA
B13: chr7:141445308:141445309:+_ENSG00000106028_ENST00000265304|hu_hu|hu_hu_hu_mus_False|8_88 (ssRNA)
RNA: GGGAGUUCUACAGUCCGACGAUCUAUGAUUGUUGUUGCUUGCCGCCUCACAUUAUUUUUAUCCAUGUACUCGCCAUAGUCCACUUUCCCUUCCACAAAUAUACGAGCCCCCUUUUUCACAUACUGAUAUGCCACGUCUCUGAGCAACAGAGGAUUGAGCAUCA
B14: chr9:120860063:120860064:+_ENSMUSG00000006932_ENSMUST00000007130|mus_hu|FALSE|FALSE (ssRNA)
RNA: GGGAGUUCUACAGUCCGACGAUCCUGCAUGCCCUCAUCUAAUGUCUCAGGGAACAUAGCAGCUCGUACCCUCUGAGCUCGAGUCAUUGCAUACUGUCCAUCAAUAUCAGCUACUUGUUCUUGAGUGAAGGACUGAGAAAAUCCCAACAGAGGAUUGAGCAUCA
B15: chr4:83347727:83347728:-_ENSG00000152795_ENST00000602300|hu_hu|motif|central (ssRNA)
RNA: GGGAGUUCUACAGUCCGACGAUCCCCAGUAUAAUCAUAUCCGCCAUAGCCACUAUAGUUUUGAUCACCACCAUAGGCACGGUUGUAAUUUCCAUAUCCUUGAUCAUAAUAGUUAUUAAAUCCUUGGUUCCAGUUUUGGCCCUGCAACAGAGGAUUGAGCAUCA
B16: chr5:29673426:29673427:-_ENSMUSG00000010721_ENSMUST00000055195|mus_hu|FALSE|FALSE (ssRNA)
RNA: GGGAGUUCUACAGUCCGACGAUCAUUGCUGAUGAUUGAGAAGGGUAAAAGCAAAACAGCCCCAGCUGACACUGCGAGAGUGAACGUGCUCAAAAACAACGAAAUCCUGUUGACGAUGGCAUCUUCAUCUUCUUGUUCAUCUGACAACAGAGGAUUGAGCAUCA
B17: chr1:46159212:46159213:+_ENSG00000159596_ENST00000372025|hu_mus|hu_hu_hu_mus_True|58_88 (ssRNA)
RNA: GGGAGUUCUACAGUCCGACGAUCUCUGAUCCCUCCCAAGAAAGCUAGGAAACUGGCUCCAUAAGCCAUCUGAGUGAAAGCUAAUAUGGGGAUAUAAGACUUUGUUAUUACCAUGAGAAGUGGGGGAGCAGUAAAGGGGAUUAACAACAGAGGAUUGAGCAUCA
B18: 13013063_13017349_405_CDS_ENSMUSG00000031442_ENSMUST00000123811|mouse|control|control (ssRNA)
RNA: GGGAGUUCUACAGUCCGACGAUCAGCCUUUGCCCUUCUCAGGGGGCUUUGGUAACGAUGAGCUCACGUAGCCUUCCAGGCUGAGCGGGUCCGUCUUCCGGUCUUCGAGCUUCUUGACAUUUCUUGUGUUCCCUUUUGUGGGACCAACAGAGGAUUGAGCAUCA
B19: 41434223_41434343_255_3pUTR_ENSMUSG00000021365_ENSMUST00000163623|mouse|control|control (ssRNA)
RNA: GGGAGUUCUACAGUCCGACGAUCCCCGGUUCCCUGGGACAAUGCCUUGGCGACCGUGGAGGGAACACAGCCACCAUCCCUCAAGCCCUCCUGUGUUCUGCUCUAUGACAGUUAAGAUGUCUCCCUUGCGGAAGGCCAGCUCCUCAACAGAGGAUUGAGCAUCA
B20: chr2:216981417:216981418:+_ENSG00000079246_ENST00000392132|hu_hu|hu_hu_hu_mus_True|48_98 (ssRNA)
RNA: GGGAGUUCUACAGUCCGACGAUCCUGAUACUGGUCCCCACCAGAAAGGGCAUUAUCAGUGCCAUCUGUGCCAUAGAGGACUAACGCAAUCUCAUCCUUGCUCUCCGAAAAUACCUGUCGUUGGACAAACAUAGUCAUCACUUUCAACAGAGGAUUGAGCAUCA
B21: chr4:130382032:130382033:+_ENSMUSG00000025743_ENSMUST00000070478|mus_mus|FALSE|FALSE (ssRNA)
RNA: GGGAGUUCUACAGUCCGACGAUCCCAGGCCUUGGUAUCUUUAUCUUUAUCCAUCUGACCCUCUCCUCCUUCUCUUAUUUAAGUUUUGGCCAUGAACUCAGGACAGGGUUGGUUAAUAAACAGGUUAUAGGGAGAGAACGGGUACAACAGAGGAUUGAGCAUCA
B22: chr1:163112212:163112213:-_ENSG00000143248_ENST00000313961|hu_hu|hu_hu_hu_mus_False|1_1 (ssRNA)
RNA: GGGAGUUCUACAGUCCGACGAUCUUUUAUUAUCAGUAAGAGUGAGUUACAUACUAGGCAAAGUAUUGGAUACAAUAAUCAGGAAACAAACACUAUUGGUCCAGAAUUUAAAACUUUAUGAGCGAAGUGCUGGCACAGGAUUUACAACAGAGGAUUGAGCAUCA

The list shows a part of the results.

The target in the assay is T1, UNK ZnF1-3. Put plainly: nsRBNS (natural sequence RNA bind-n-seq); RBNS binding buffer (assumed for nsRBNS): 25 mM Tris pH 7.5, 150 mM KCl, 3 mM MgCl2, 0.01% Triton X-100, 500 ug/ml BSA, 20 U/ml SUPERase-In, 4 C; UNK is unkempt and MSI1 is Musashi-1; names of the RNAs are library labels; protein concentration not given here; high values mean tight binding.
Molecule B1 gave a binding signal of 0.72 enrichment R.
B2 registered a binding signal of 1.18 enrichment R.
For B3 the value was 1.3 enrichment R; for B4, 1.92 enrichment R; for B5, 2.24 enrichment R.
For B6, the binding signal stood at 0.473 enrichment R.
With B7 the figure was 1.76 enrichment R; with B8, 0.533 enrichment R.
With B9 the figure was 2.61 enrichment R; with B10, 1.32 enrichment R.
Take B11: the binding signal was found to be 0.408 enrichment R.
B12 registered a binding signal of 0.834 enrichment R.
For B13 the value was 0.652 enrichment R.
In turn, B14 showed a binding signal of 0.958 enrichment R.
As to B15, the binding signal worked out at 0.778 enrichment R.
Take B16: the binding signal stood at 0.915 enrichment R.
With B17 the figure was 1.22 enrichment R; with B18, 0.656 enrichment R.
For B19 the value was 0.725 enrichment R; for B20, 0.917 enrichment R.
B21 yielded a binding signal of 1.04 enrichment R.
In turn, B22 had a binding signal of 1.17 enrichment R.
